Data as given in the supplement of paper PMC9046079.
± gives the standard deviation of the averaged measurements. Some of the results follow.

What was measured:
[1] = system: murine small intestinal organoids (ENR+CD Paneth differentiation); assay: cellular ATP (CellTiter-Glo 3D) relative to plate median (log10 fold change); higher = more viable cells; conditions: 6 d
[2] = system: murine small intestinal organoids (ENR+CD Paneth differentiation); assay: carbachol-stimulated secreted lysozyme activity relative to plate median (log10 fold change); higher = more Paneth cell lysozyme secretion; conditions: 6 d, carbachol 10 µM
[3] = system: murine small intestinal organoids (ENR+CD Paneth differentiation); assay: basal (non-stimulated) secreted lysozyme activity relative to plate median (log10 fold change); higher = more Paneth cell lysozyme secretion; conditions: 6 d
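For basal (non-stimulated) secreted lysozyme activity relative to plate median in this document: ISC-enriched organoid precursors grown as 2.5D pseudo-monolayer on Matrigel, compound given on day 0 and day 3, plate values LOESS-normalized before median fold change, three murine donors.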
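For cellular ATP (CellTiter-Glo 3D) relative to plate median in this document: 2.5D pseudo-monolayer culture of ISC-enriched organoids partly embedded atop Matrigel, compound added on day 0 and again on day 3, per-plate LOESS correction before median fold change.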

SMILES: COc1ccc(COc2ccc(Cc3cnc(N)nc3N)cc2OC)cc1
- cellular ATP (log10) ([1]; 0.08 µM): -0.0423 ± 0.27
- cellular ATP (log10) ([1]; 0.4 µM): -0.284 ± 0.44
- cellular ATP (log10) ([1]; 2 µM): 0.0286 ± 0.35
- cellular ATP (log10) ([1]; 10 µM): -0.0381 ± 0.23
- carbachol-stimulated secreted lysozyme activity (log10) ([2]; 0.08 µM): 0.0183 ± 0.12
- carbachol-stimulated secreted lysozyme activity (log10) ([2]; 0.4 µM): 0.0845 ± 0.074
- carbachol-stimulated secreted lysozyme activity (log10) ([2]; 2 µM): -0.0406 ± 0.012
- carbachol-stimulated secreted lysozyme activity (log10) ([2]; 10 µM): 0.00351 ± 0.038
- basal (log10) ([3]; 0.08 µM): 0.00638 ± 0.084
- basal (log10) ([3]; 0.4 µM): 0.0135 ± 0.06
- basal (log10) ([3]; 2 µM): -0.0603 ± 0.017
- basal (log10) ([3]; 10 µM): -0.0181 ± 0.048

SMILES: COc1cccc(C=NCCN=Cc2cccc(OC)c2[O-])c1[O-].[Cl-].[Mn+3]
- cellular ATP (log10) ([1]; 0.08 µM): -0.0147 ± 0.087
- cellular ATP (log10) ([1]; 0.4 µM): -0.162 ± 0.3
- cellular ATP (log10) ([1]; 2 µM): 0.0909 ± 0.3
- cellular ATP (log10) ([1]; 10 µM): -0.0238 ± 0.47
- carbachol-stimulated secreted lysozyme activity (log10) ([2]; 0.08 µM): 0.04 ± 0.043
- carbachol-stimulated secreted lysozyme activity (log10) ([2]; 0.4 µM): 0.103 ± 0.21
- carbachol-stimulated secreted lysozyme activity (log10) ([2]; 2 µM): -0.0465 ± 0.047
- carbachol-stimulated secreted lysozyme activity (log10) ([2]; 10 µM): -0.19 ± 0.094
- basal (log10) ([3]; 0.08 µM): 0.0682 ± 0.089
- basal (log10) ([3]; 0.4 µM): 0.00298 ± 0.0042
- basal (log10) ([3]; 2 µM): 0.0283 ± 0.069
- basal (log10) ([3]; 10 µM): -0.0852 ± 0.05

SMILES: CCC(=O)NCC[C@@H]1CCc2ccc3c(c21)CCO3 [Ramelteon]
- cellular ATP (log10) ([1]; 0.08 µM): -0.00297 ± 0.16
- cellular ATP (log10) ([1]; 0.4 µM): 0.223 ± 0.23
- cellular ATP (log10) ([1]; 2 µM): -0.138 ± 0.45
- cellular ATP (log10) ([1]; 10 µM): 0.0788 ± 0.22
- carbachol-stimulated secreted lysozyme activity (log10) ([2]; 0.08 µM): 0.0172 ± 0.17
- carbachol-stimulated secreted lysozyme activity (log10) ([2]; 0.4 µM): 0.182 ± 0.21
- carbachol-stimulated secreted lysozyme activity (log10) ([2]; 2 µM): 0.0459 ± 0.047
- carbachol-stimulated secreted lysozyme activity (log10) ([2]; 10 µM): 0.0971 ± 0.074
- basal (log10) ([3]; 0.08 µM): 0.0158 ± 0.1
- basal (log10) ([3]; 0.4 µM): 0.0686 ± 0.12
- basal (log10) ([3]; 2 µM): 0.00523 ± 0.034
- basal (log10) ([3]; 10 µM): 0.0318 ± 0.069

SMILES: CC(C=CC(=O)NO)=CC(C)C(=O)c1ccc(N(C)C)cc1 (stereo not drawn) [Trichostatin A (TSA)]
- cellular ATP (log10) ([1]; 0.08 µM): -0.52 ± 1
- cellular ATP (log10) ([1]; 0.4 µM): -0.472 ± 0.41
- cellular ATP (log10) ([1]; 2 µM): -0.352 ± 0.38
- cellular ATP (log10) ([1]; 10 µM): -0.602 ± 0.4
- carbachol-stimulated secreted lysozyme activity (log10) ([2]; 0.08 µM): -0.206 ± 0.069
- carbachol-stimulated secreted lysozyme activity (log10) ([2]; 0.4 µM): -0.135 ± 0.28
- carbachol-stimulated secreted lysozyme activity (log10) ([2]; 2 µM): -0.105 ± 0.28
- carbachol-stimulated secreted lysozyme activity (log10) ([2]; 10 µM): -0.3367 ± 0.00068
- basal (log10) ([3]; 0.08 µM): -0.113 ± 0.062
- basal (log10) ([3]; 0.4 µM): -0.116 ± 0.12
- basal (log10) ([3]; 2 µM): -0.118 ± 0.1
- basal (log10) ([3]; 10 µM): -0.178 ± 0.071

SMILES: Cn1c(=O)cc(N2CCC[C@@H](N)C2)n(Cc2cc(F)ccc2C#N)c1=O [Trelagliptin]
- cellular ATP (log10) ([1]; 0.08 µM): 0.216 ± 0.25
- cellular ATP (log10) ([1]; 0.4 µM): -0.046 ± 0.17
- cellular ATP (log10) ([1]; 2 µM): -0.104 ± 0.48
- cellular ATP (log10) ([1]; 10 µM): 0.0929 ± 0.23
- carbachol-stimulated secreted lysozyme activity (log10) ([2]; 0.08 µM): -0.0145 ± 0.0039
- carbachol-stimulated secreted lysozyme activity (log10) ([2]; 0.4 µM): -0.0111 ± 0.15
- carbachol-stimulated secreted lysozyme activity (log10) ([2]; 2 µM): -0.0793 ± 0.06
- carbachol-stimulated secreted lysozyme activity (log10) ([2]; 10 µM): -0.247 ± 0.18
- basal (log10) ([3]; 0.08 µM): 0.00962 ± 0.038
- basal (log10) ([3]; 0.4 µM): -0.00336 ± 0.079
- basal (log10) ([3]; 2 µM): -0.0581 ± 0.048
- basal (log10) ([3]; 10 µM): -0.0799 ± 0.15

SMILES: Cc1[nH]c2ccccc2c1CCNCc1ccc(/C=C/C(=O)NO)cc1 [Panobinostat (LBH589)]
- cellular ATP (log10) ([1]; 0.08 µM): 0.295 ± 0.18
- cellular ATP (log10) ([1]; 0.4 µM): 0.212 ± 0.15
- cellular ATP (log10) ([1]; 2 µM): -0.537 ± 0.2
- cellular ATP (log10) ([1]; 10 µM): -1 ± 0.66
- carbachol-stimulated secreted lysozyme activity (log10) ([2]; 0.08 µM): -0.0896 ± 0.16
- carbachol-stimulated secreted lysozyme activity (log10) ([2]; 0.4 µM): -0.0773 ± 0.012
- carbachol-stimulated secreted lysozyme activity (log10) ([2]; 2 µM): -0.329 ± 0.091
- carbachol-stimulated secreted lysozyme activity (log10) ([2]; 10 µM): -0.379 ± 0.039
- basal (log10) ([3]; 0.08 µM): 0.00164 ± 0.068
- basal (log10) ([3]; 0.4 µM): -0.0266 ± 0.039
- basal (log10) ([3]; 2 µM): -0.153 ± 0.064
- basal (log10) ([3]; 10 µM): -0.217 ± 0.083

SMILES: Cc1cc(Nc2ccc(NC(=O)c3ccc(Nc4ccnc5ccccc45)cc3)cc2)nc(N)n1
- cellular ATP (log10) ([1]; 0.08 µM): 0.215 ± 0.44
- cellular ATP (log10) ([1]; 0.4 µM): 0.265 ± 0.29
- cellular ATP (log10) ([1]; 2 µM): 0.317 ± 0.23
- cellular ATP (log10) ([1]; 10 µM): 0.208 ± 0.22
- carbachol-stimulated secreted lysozyme activity (log10) ([2]; 0.08 µM): 0.0567 ± 0.056
- carbachol-stimulated secreted lysozyme activity (log10) ([2]; 0.4 µM): 0.156 ± 0.016
- carbachol-stimulated secreted lysozyme activity (log10) ([2]; 2 µM): 0.0593 ± 0.047
- carbachol-stimulated secreted lysozyme activity (log10) ([2]; 10 µM): -0.0522 ± 0.0079
- basal (log10) ([3]; 0.08 µM): 0.0714 ± 0.035
- basal (log10) ([3]; 0.4 µM): 0.142 ± 0.0062
- basal (log10) ([3]; 2 µM): 0.115 ± 0.11
- basal (log10) ([3]; 10 µM): -0.0459 ± 0.031

SMILES: Nc1cccc2c1C(=O)N(C1CCC(=O)NC1=O)C2=O (stereo not drawn) [Pomalidomide]
- cellular ATP (log10) ([1]; 0.08 µM): 0.0629 ± 0.11
- cellular ATP (log10) ([1]; 0.4 µM): 0.224 ± 0.087
- cellular ATP (log10) ([1]; 2 µM): -0.216 ± 0.38
- cellular ATP (log10) ([1]; 10 µM): -0.305 ± 0.53
- carbachol-stimulated secreted lysozyme activity (log10) ([2]; 0.08 µM): -0.0654 ± 0.011
- carbachol-stimulated secreted lysozyme activity (log10) ([2]; 0.4 µM): -0.141 ± 0.074
- carbachol-stimulated secreted lysozyme activity (log10) ([2]; 2 µM): -0.139 ± 0.0077
- carbachol-stimulated secreted lysozyme activity (log10) ([2]; 10 µM): -0.253 ± 0.0092
- basal (log10) ([3]; 0.08 µM): -0.00216 ± 0.04
- basal (log10) ([3]; 0.4 µM): -0.00147 ± 0.068
- basal (log10) ([3]; 2 µM): -0.0383 ± 0.031
- basal (log10) ([3]; 10 µM): -0.126 ± 0.033

SMILES: O=C(Nc1ccccc1Br)N[C@@H]1CCN(c2ccc(C(F)(F)F)cn2)C1
- cellular ATP (log10) ([1]; 0.08 µM): 0.121 ± 0.24
- cellular ATP (log10) ([1]; 0.4 µM): -0.0693 ± 0.099
- cellular ATP (log10) ([1]; 2 µM): -0.052 ± 0.063
- cellular ATP (log10) ([1]; 10 µM): -0.0924 ± 0.1
- carbachol-stimulated secreted lysozyme activity (log10) ([2]; 0.08 µM): -0.0237 ± 0.0041
- carbachol-stimulated secreted lysozyme activity (log10) ([2]; 0.4 µM): -0.0688 ± 0.13
- carbachol-stimulated secreted lysozyme activity (log10) ([2]; 2 µM): -0.115 ± 0.021
- carbachol-stimulated secreted lysozyme activity (log10) ([2]; 10 µM): -0.0222 ± 0.0007
- basal (log10) ([3]; 0.08 µM): 0.0723 ± 0.13
- basal (log10) ([3]; 0.4 µM): -0.051 ± 0.052
- basal (log10) ([3]; 2 µM): -0.0656 ± 0.089
- basal (log10) ([3]; 10 µM): -0.0119 ± 0.0033
